Results taken from paper PMC5908291, “The JmjN domain as a dimerization interface and a targeted inhibitor of KDM4 demethylase activity” (Oncotarget, 2018).
Results are given in words; binding and its absence hold for the method and conditions named. In cells and extracts the contact can be indirect. Some entries that bind do so weakly or less than the wild type. Sequences can lack the tags named with a protein.

How the values were obtained:
[1] = biological target: isolated JmjN domain of KDM4C p.E24A/E25A with a C-terminal YN or YC tag (human) (UniProt Q9H3R0); assay: split reporter; BiFC (Venus YN + YC), live cell confocal imaging of HEK293 cells 20 h after co-transfection, 37°C, 5% CO2
[2] = biological target: isolated JmjN domain of KDM4C p.H42A/R43A with a C-terminal YN or YC tag (human) (UniProt Q9H3R0); assay: as above
[3] = biological target: KDM4C double mutant p.E24A/E25A + p.H42A/R43A with a C-terminal YN or YC tag (human) (UniProt Q9H3R0); assay: split reporter; BiFC (Venus YN + YC), immunofluorescence microscopy of fixed, permeabilised HEK293 cells 20 h after co-transfection; transfected cells marked by anti-YFP, anti-KDM4C or anti-HA
[4] = biological target: KDM4C lacking the JmjN domain, with a C-terminal YN or YC tag (human) (UniProt Q9H3R0); assay: split reporter; BiFC (Venus YN + YC), live cell confocal imaging of HEK293 cells 20 h after co-transfection, 37°C, 5% CO2
[5] = biological target: KDM4C lacking the JmjN domain, with a C-terminal YN or YC tag (human) (UniProt Q9H3R0); assay: split reporter; BiFC (Venus YN + YC), immunofluorescence microscopy of fixed, permeabilised HEK293 cells 20 h after co-transfection; transfected cells marked by anti-YFP, anti-KDM4C or anti-HA

B1: isolated JmjN domain of KDM4C p.E24A/E25A with a C-terminal YN or YC tag (domain or fragment, UniProt Q9H3R0 1-58)
chain: MEVAEVESPLNPSCKIMTFRPSMAAFREFNKYLAYMESKGAHRAGLAKVIPPKEWKPR
For B1, the binding [1] was “binds”.

B2: isolated JmjN domain of KDM4C p.H42A/R43A with a C-terminal YN or YC tag (domain or fragment, UniProt Q9H3R0 1-58)
chain: MEVAEVESPLNPSCKIMTFRPSMEEFREFNKYLAYMESKGAAAAGLAKVIPPKEWKPR
B2 was tested, and the binding [2] was “binds”.

B3: KDM4C double mutant p.E24A/E25A + p.H42A/R43A with a C-terminal YN or YC tag (enzyme, UniProt Q9H3R0 1-1056)
chain: MEVAEVESPLNPSCKIMTFRPSMAAFREFNKYLAYMESKGAAAAGLAKVIPPKEWKPRQCYDDIDNLLIPAPIQQMVTGQSGLFTQYNIQKKAMTVKEFRQLANSGKYCTPRYLDYEDLERKYWKNLTFVAPIYGADINGSIYDEGVDEWNIARLNTVLDVVEEECGISIEGVNTPYLYFGMWKTTFAWHTEDMDLYSINYLHFGEPKSWYAIPPEHGKRLERLAQGFFPSSSQGCDAFLRHKMTLISPSVLKKYGIPFDKITQEAGEFMITFPYGYHAGFNHGFNCAESTNFATVRWIDYGKVAKLCTCRKDMVKISMDIFVRKFQPDRYQLWKQGKDIYTIDHTKPTPASTPEVKAWLQRRRKVRKASRSFQCARSTSKRPKADEEEEVSDEVDGAEVPNPDSVTDDLKVSEKSEAAVKLRNTEASSEEESSASRMQVEQNLSDHIKLSGNSCLSTSVTEDIKTEDDKAYAYRSVPSISSEADDSIPLSSGYEKPEKSDPSELSWPKSPESCSSVAESNGVLTEGEESDVESHGNGLEPGEIPAVPSGERNSFKVPSIAEGENKTSKSWRHPLSRPPARSPMTLVKQQAPSDEELPEVLSIEEEVEETESWAKPLIHLWQTKSPNFAAEQEYNATVARMKPHCAICTLLMPYHKPDSSNEENDARWETKLDEVVTSEGKTKPLIPEMCFIYSEENIEYSPPNAFLEEDGTSLLISCAKCCVRVHASCYGIPSHEICDGWLCARCKRNAWTAECCLCNLRGGALKQTKNNKWAHVMCAVAVPEVRFTNVPERTQIDVGRIPLQRLKLKCIFCRHRVKRVSGACIQCSYGRCPASFHVTCAHAAGVLMEPDDWPYVVNITCFRHKVNPNVKSKACEKVISVGQTVITKHRNTRYYSCRVMAVTSQTFYEVMFDDGSFSRDTFPEDIVSRDCLKLGPPAEGEVVQVKWPDGKLYGAKYFGSNIAHMYQVEFEDGSQIAMKREDIYTLDEELPKRVKARFSTASDMRFEDTFYGADIIQGERKRQRVLSSRFKNEYVADPVYRTFLKSSFQKKCQKRQ
B3 was tested, and the binding [3] was “no binding”.

B4: KDM4C lacking the JmjN domain, with a C-terminal YN or YC tag (enzyme, UniProt Q9H3R0)
chain: MEVAEVESPLNPSCKQCYDDIDNLLIPAPIQQMVTGQSGLFTQYNIQKKAMTVKEFRQLANSGKYCTPRYLDYEDLERKYWKNLTFVAPIYGADINGSIYDEGVDEWNIARLNTVLDVVEEECGISIEGVNTPYLYFGMWKTTFAWHTEDMDLYSINYLHFGEPKSWYAIPPEHGKRLERLAQGFFPSSSQGCDAFLRHKMTLISPSVLKKYGIPFDKITQEAGEFMITFPYGYHAGFNHGFNCAESTNFATVRWIDYGKVAKLCTCRKDMVKISMDIFVRKFQPDRYQLWKQGKDIYTIDHTKPTPASTPEVKAWLQRRRKVRKASRSFQCARSTSKRPKADEEEEVSDEVDGAEVPNPDSVTDDLKVSEKSEAAVKLRNTEASSEEESSASRMQVEQNLSDHIKLSGNSCLSTSVTEDIKTEDDKAYAYRSVPSISSEADDSIPLSSGYEKPEKSDPSELSWPKSPESCSSVAESNGVLTEGEESDVESHGNGLEPGEIPAVPSGERNSFKVPSIAEGENKTSKSWRHPLSRPPARSPMTLVKQQAPSDEELPEVLSIEEEVEETESWAKPLIHLWQTKSPNFAAEQEYNATVARMKPHCAICTLLMPYHKPDSSNEENDARWETKLDEVVTSEGKTKPLIPEMCFIYSEENIEYSPPNAFLEEDGTSLLISCAKCCVRVHASCYGIPSHEICDGWLCARCKRNAWTAECCLCNLRGGALKQTKNNKWAHVMCAVAVPEVRFTNVPERTQIDVGRIPLQRLKLKCIFCRHRVKRVSGACIQCSYGRCPASFHVTCAHAAGVLMEPDDWPYVVNITCFRHKVNPNVKSKACEKVISVGQTVITKHRNTRYYSCRVMAVTSQTFYEVMFDDGSFSRDTFPEDIVSRDCLKLGPPAEGEVVQVKWPDGKLYGAKYFGSNIAHMYQVEFEDGSQIAMKREDIYTLDEELPKRVKARFSTASDMRFEDTFYGADIIQGERKRQRVLSSRFKNEYVADPVYRTFLKSSFQKKCQKRQ
With B4 the binding [4] was “no binding” and the binding [5] was “no binding”.
